Laboratory results reported in PubChem BioAssay AID1671194 (National Center for Advancing Translational Sciences (NCATS), 2021).
Among all 140,000 compounds or so, about 240 (0.17%) were called active. Inconclusive results, whose numbers are uncertain, are shown with a selection of clear calls. The call rests on the fitted dose curve; in most records, active means well fitted inhibition curve with a large enough effect; inconclusive means small, poorly fitted or top-dose-only effect; inactive means no such curve, though single readings can be large or run the other way. Potencies beside an inconclusive call are fits to weak or partial responses and may not hold up.

Experiment: Primary qHTS assay for inhibitors of alpha-synuclein gene (SNCA) expression; further: nearly all actives have a fitted effect of over 45% in size;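 on activity change, negative = inhibition: plate controls were DMSO cells for no effect and cell-free wells for full effect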
Settings: HEK-293 SNCA-luciferase knock-in, luminescence, 24 h; activity change, negative = inhibition: at 57.2 µM (top of the series) unless noted
Potency means the concentration at half of the fitted maximal effect; tags describe the fitted curve by direction and shape.

Activity change, negative = inhibition, inactive:
CCc1nc2ccc(C(=O)NCc3cccc(Br)c3)cc2nc1CC 61.5%, COc1ccc(-c2nc3ccccc3s2)cc1NC(=O)COc1cccc(C)c1 118%, COc1cccc(-c2cc3c(=O)n(CCNC(=O)c4ccc(OC)c(F)c4)ccn3n2)c1 9.81%, O=C(C1CCCN(c2nc3ncccc3o2)C1)N1CCOCC1 (centres undefined) -2.12% [at 87.6 µM], COCCn1c(=O)cnc2cnc(N3CCOCC3)nc21 -7.85%, O=C(c1cccc(F)c1)N1CCN2C(=O)N(Cc3ccccc3)C(=O)[C@H]2C1 -11.9% [at 87.6 µM], O=C(C[C@H]1NC(=O)c2ccccc2NC1=O)Nc1cccc(C(F)(F)F)c1 -11.5%, Cc1ccc(Nc2ccnc(N3CC4CCC(C3)N4CC(F)(F)F)n2)cc1 -2.2%, Cc1ccc(OCC(=O)Nc2ccc3nc(SCC(N)=O)sc3c2)cc1 28.3%, O=c1[nH]c(C2CCN([S+](=O)([O-])c3cccs3)CC2)nn1-c1ccccn1 1.22%, COc1ccc(CCNC(=O)c2c(C)noc2-c2ccc3c(c2)OCO3)cc1OC 10.7%, COc1ccc(CN(C)Cc2ccccc2C(F)(F)F)cc1 18.8% [at 87.6 µM], O=C(Nc1ccc2c(c1)OCCO2)N1c2ccccc2CC1c1nc(C2CC2)no1 (centres undefined) 58.8%, CN(CC(=O)N1CCn2nc(Cc3ccccc3)cc2C1)Cc1ccncc1 2.16%, CC(C)CNC(=O)c1ccc2c(c1)NC(C)(COc1ccc3[nH]ccc3c1)CO2 (centres undefined) -25.2% [at 87.6 µM], Cc1cc(Cl)ccc1-c1ccccc1CN -12.6% [at 87.6 µM], CNC(=O)c1cccc(-c2cnc3[nH]cc(CC(=O)N4CCC(OC)CC4)c3c2)c1 13.8% [at 87.6 µM], COc1cccc(CN2CCCC3(COc4ccccc4C(=O)N3)C2)c1 (centres undefined) -10.5% [at 87.6 µM], COc1ccc(C(=O)N2CCC3(CC2)NC(=O)N(Cc2ccccc2)C3=O)c(C)c1 -17.4%

Potency, inconclusive:
O=C(NC1CCN(c2cc(-c3ccc(Cl)cc3)[nH]n2)CC1)c1ccc2[nH]ccc2c1 7.94 µM [inhibitor, partial curve], CN(C)CCNC(=O)c1n[nH]c2c1CN(C(=O)c1cc(F)ccc1Cl)CC2 2.24 µM [inhibitor, partial curve, poor fit], CCc1cccc(NC(=O)CN(c2ccc(C)cc2)S(=O)(=O)c2cccs2)c1 39.8 µM [inhibitor, single point], O=C1CCC2(C(=O)N3CCN(c4ccccn4)CC3)CCC=C2N1C1CCCC1 (centres undefined) 39.8 µM [inhibitor, single point], O=C(Cn1c(SCc2ccccc2F)nc2cccnc21)Nc1ccc(F)c(Cl)c1 39.8 µM [inhibitor, single point], CCCNC(=O)N1CCCC(n2c(C)cnc2C2CC2)C1 (centres undefined) 20 µM [inhibitor, single point], CCCCc1ccc(NS(=O)(=O)c2ccc(N3CCCCS3(=O)=O)cc2)cc1 8.91 µM [inhibitor, partial curve, poor fit], NC(=O)N1CCC(CC(=O)N2CCC([C@H]3c4ncc(Br)cc4CCc4cc(Cl)cc(Br)c43)CC2)CC1 4.29 µM [inhibitor, full curve, poor fit], O=C1NCCCCCN(C(=O)CN2CCOCC2)[C@H]2CCC[C@@H]12 10 µM [inhibitor, partial curve, poor fit], CCCc1cc(C(=O)N2CCCC(Cc3ccccc3F)(C(=O)OCC)C2)n(C)n1 (centres undefined) 35.5 µM [inhibitor, single point], CCOc1ccc2c(n1)CCN(C(=O)c1ccc(OC)nc1)C2 3.16 µM [inhibitor, single point], Fc1ccc(-c2cc(C(F)(F)F)nc(NCc3ccccc3)n2)cc1 31.6 µM [inhibitor, single point], O=C(CCc1nc2ccccc2s1)N1CCC(Cc2noc(-c3ccc(F)cc3)n2)C1 (centres undefined) 31.6 µM [inhibitor, single point], CCCCS(=O)(=O)c1oc(-c2ccc(F)cc2)nc1S(=O)(=O)c1ccccc1 10 µM [inhibitor, partial curve, poor fit], CN1[C@@H](CCC(=O)N2CCc3ccccc32)CNC(=O)[C@@H]2[C@H]1CCN2Cc1ccc(O)cc1 39.8 µM [inhibitor, single point], F[C@@H]1CN(Cc2ccc(C(F)(F)F)cc2)C[C@@H]1OCc1nc2ccccc2[nH]1 56.2 µM [inhibitor, single point], COc1ccccc1N1CCN(CCCNC(=O)c2cnn(-c3ccc(C)c(C)c3)c2C2CCN(C(=O)OC(C)(C)C)CC2)CC1 20 µM [inhibitor, single point], Cc1cc(C)n(CCC(=O)N2CC[C@@H]3CN(S(C)(=O)=O)[C@@H]3C2)n1 28.2 µM [inhibitor, single point], O=[S+]1([O-])NCC2(CCCN(Cc3ccc(OC(F)(F)F)cc3)C2)Nc2ccccc21 (centres undefined) 0.708 µM [inhibitor, single point], COc1ccc(-c2noc(N3CCN(c4ccc(C)cc4)C(C)C3)n2)cc1OC (centres undefined) 0.178 µM [inhibitor, partial curve, poor fit], COCC(=O)NC[C@H]1CCN(Cc2cccn2C)C[C@H]1N(C)C 28.2 µM [inhibitor, single point], N#Cc1ccnc(-c2nnc3ccc(NC4CC4)nn23)c1 15.8 µM [inhibitor, partial curve, poor fit], O=C(NC1CCCN(C2CCCCCC2)C1)c1ccccc1C(F)(F)F (centres undefined) 3.16 µM [inhibitor, full curve, poor fit], CCCC(=O)C1=C(c2cccc(OC)c2)N(C(=O)CCC)n2c(C)nnc2S1 0.178 µM [inhibitor, single point], CN1c2cc(C(=O)Nc3ccc(Oc4ccccc4)cc3)ccc2C(=O)N2CCCCC21 (centres undefined) 17.8 µM [inhibitor, single point], O=C(c1cnc(N2CCCCC2)c2ccccc12)N1CCN(c2ccc(Cl)cc2)CC1 31.6 µM [inhibitor, single point], Cc1ccc(S(=O)(=O)NC[C@H]2OC[C@@H](NCC(C)(C)C)[C@@H]2O)cc1 7.94 µM [inhibitor, partial curve, poor fit], Cc1ccc(C)c(S(=O)(=O)NCCc2csc(-c3ccc(Cl)cc3)n2)c1 39.8 µM [inhibitor, partial curve, poor fit], COc1ccc(-c2nc3cc(C(C)C)ccc3o2)cc1NC(=O)c1ccc(C)c(Cl)c1 31.6 µM [inhibitor, partial curve, poor fit], C=CCNC(=O)CCc1c(C)nn(-c2ccccc2C)c1Oc1ccccc1 6.31 µM [inhibitor, full curve, poor fit], COc1ccc(NC(=O)c2cc(S(=O)(=O)NCCC3=CCCCC3)ccc2F)cc1 28.2 µM [inhibitor, partial curve, poor fit], O=C(Nc1cc(C(F)(F)F)cc(C(F)(F)F)c1)c1cc(Cl)ccc1O 3.41 µM [inhibitor, full curve], O=C(Nc1cccnc1)c1ccc2c(c1)OCCN(c1cccc(OC(F)(F)F)c1)C2 17.8 µM [inhibitor, partial curve, poor fit], CC(=O)c1cccc(NC(=O)Cn2c(-c3ccc(Cl)cc3)nc(C)cc2=O)c1 10 µM [inhibitor, partial curve, poor fit], Cc1ccccc1C(=O)NC1(C(F)(F)F)N=C(c2ccccc2)N(Cc2ccccc2)C1=O (centres undefined) 39.8 µM [inhibitor, single point], Cc1noc(C)c1CC(=O)N1CC[C@@H](NC(=O)c2cnccn2)[C@H](O)C1 3.55 µM [inhibitor, full curve], CCCS(=O)(=O)N1CCC(Nc2nccnc2OCC)CC1 39.8 µM [inhibitor, single point], COc1ccc(CN2CCC3(CC2)CC(=O)c2ccccc2O3)cc1 11.2 µM [inhibitor, full curve], COCCn1c(=O)c(-c2cc(F)cc(F)c2)nc2cnc(OCc3ccccc3)nc21 22.4 µM [inhibitor, single point], CCCCCC(=O)Nc1nc2c(s1)C[C@@H]1[C@](C)(CO)[C@H](O)CC[C@@]1(C)[C@@H]2CC(=O)Nc1ccccc1 1.12 µM [inhibitor, full curve], CC(=O)c1c(C)nn(CC(=O)NC(C)c2cnn(-c3ccccc3C)c2C)c1C (centres undefined) 15.8 µM [inhibitor, partial curve, poor fit], Cc1ccc(Cl)cc1N1CCN(C(=O)c2cnn(-c3ccc(Cl)cc3)c2C2CCNCC2)CC1 15.8 µM [inhibitor, partial curve, poor fit], CN(C)[C@@H]1CN(Cc2cccc(F)c2F)CC[C@@H]1CNC(=O)C1CC1 39.8 µM [inhibitor, single point]

Potency, active:
C[C@H](C(=O)N1CCOCC1)C1CC[C@@]2(C)Cc3sc(-c4ccccc4)nc3[C@@H](C)[C@@H]2[C@H]1O (some centres undefined) 3.16 µM

Potency, inactive:
O=C(NC1CC1)c1ccc2nnc(C3CC3)n2c1
